Test results: PMC10726135
The list shows a part of the results. At the low end of the ranking the order means little. The protein was read in a cell extract, so binding may be indirect.

target: T1, HNF4alpha8 (COS-7 nuclear extract) (UniProt P41235-5); test: protein-binding microarray; details: COS-7 nuclear extract on double-stranded Agilent 4x180k PBM; binding buffer, salt, pH and temperature not given; high values mean tight binding; double strand, one strand shown; sequences stand for … in …GCCTAGGGAGATTAGAGTATCGGTCGA
T1 sequence: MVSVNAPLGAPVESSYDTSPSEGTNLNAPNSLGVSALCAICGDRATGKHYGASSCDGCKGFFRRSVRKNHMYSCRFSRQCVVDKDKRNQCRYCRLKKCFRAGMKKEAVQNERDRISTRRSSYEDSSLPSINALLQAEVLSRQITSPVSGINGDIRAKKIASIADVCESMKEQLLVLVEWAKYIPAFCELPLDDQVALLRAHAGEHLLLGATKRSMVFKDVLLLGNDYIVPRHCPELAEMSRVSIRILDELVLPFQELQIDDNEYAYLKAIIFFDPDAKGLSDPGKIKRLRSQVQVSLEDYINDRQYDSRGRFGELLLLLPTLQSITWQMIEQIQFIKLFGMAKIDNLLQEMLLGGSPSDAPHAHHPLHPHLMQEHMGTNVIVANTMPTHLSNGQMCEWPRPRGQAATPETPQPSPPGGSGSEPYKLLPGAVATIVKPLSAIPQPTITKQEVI

Sequence | binding signal (log2 normalized intensity)
GCATATCTCTAGATCTCAGTTGGTCCAAGG | 1.89
TTATCTTCACATTCCATCATCACGGTGGAC | 1.71
CGGGGATGGCAGACGGGGCTCTCAGAATCT | -1.32
CAGCTGGGGCCACCTTTTCAGCTTCCTCCT | -1.23
GCTCCTGTTCCTTTGTTACACTGGCTGCCC | 2.08
CCTTTGACTCATTATCCCCCGCAACTATTT | 3.15
TAAGCACTTGTGGTATGTTTGGATTGGGCA | 1.52
ATGACTCTCTTATAGGTGTTTATAAAGTTG | 1.68
GACTAGGCACAGGAACCTGTTTTACAGGAC | -1.2
TAGACAAACAGCAATAGCAAGACTGCAAAA | -1.47
CTTCATAGTGGTTTGACTTTTTTTTTTTTT | 2.38
CATCCACATGGGCGTCACCAACCAGCCCTC | 3.3
GACAGATGAAAGCATATTTGGCCACATCCT | -1.32
GTTCTGCAGACTCCCTAGAAGAGTGAACCT | 2.52
TGGATCAGCACTGGGTGGGGATAAGAAAAG | -1.28
GCTGCATGTCATGACCTTCATCAATCAGCC | 1.75
GATAAGAGAAGTTGCTCTTTACACCATTGC | 1.65
GGTGAGATAAGAAGACTCCAGGGGACTGCC | -1.27
GCTGCGCGGGGCCTCCCAGTGGTATGCCTC | -1.28
CTTTGGACTTTCAAAAGTTAAGGTCAAGAC | 2.78
ATAAAACCAGTCAGGCAAACAACAGGCATC | -1.31
GGAAAAGATTAGATTGCTCAGAGGCACAGT | -1.3
GAGCCCTTAGGGTCAATGGGACATTGCATT | 2.22
TTCCCGCCCAAGGAGACAGGCTTTGAGCAT | 0.0316

Sequence | binding signal (log2 normalized intensity)
AAGGCAGAGCACTAAATCTCTCCTAGAGAA | -1.37
TTGGTTGTTCTGTTTAACAGAGATTTGCAG | 1
CACTGACTAAAGCAAGTCAGATGGCCAAAG | -1.27
CACAGAAGTCTTTCCCTGCCAGTTCCATGT | 1.23
ACATAGCAGGCATACCAGGCAGAGGGTTAA | -1.19
TTGCGGATAGATATGTTGAAGTGACTAAAT | -1.17
ATAATGCATACGCTAGCTTTCTGGTCTTTG | 0.696
ACATTCTTTCTGCATCGCAGTCGCCTGCAA | -1.33
CTCTCCCAGCGGGTCATTAATTCCCAGGAA | 0.386
TTTTACAATGCAAACCTAACAGGCTGTAAG | -1.4
GATAATAGTGGCTGAAAGTACTGGCCAGAT | 0.216
GCTTTTGTCATGACCTTCGCTCTTGATGGG | 4.62
CTCATAACTAGGGTTCCAAGACCAAGCAAG | -1.29
GCCTTGCCGTGCTGCGGTGGGCTCCACCCA | -1.42
TGCACAAATTTCAGATATCTGAATGTACCT | 1.93
TGTTCATTATGTCTTATCTACCTGGCTTGT | 1.66
CGGGAAAGGCCGGAGGGCGGGGCGGGGCAG | -1.34
GGCCCAGGGACTCAGGCACACAAAAAAAAC | -1.32
TCTGTGGTCAGGGCCTTTCCAGCAAATCCC | -1.27
GTACAGCCTGTGCTAAGTTTCAAAGAGGAG | -1.19
ACACTGGGAGGCAAATCTCTTGGTCATGGA | 0.515
CCCTCAGCAACTGCAAGGCTGACCCGTGAA | 2.14
TTGCTAGATTCTTTCTTCCTTTTGAAAAAG | -0.907
